{"source": "PubChem BioAssay AID720542", "about": "(National Center for Advancing Translational Sciences (NCATS), 2013)", "note": "In all, about 360,000 compounds went through this assay and about 740 (0.21%) were called active. Inconclusive results, whose numbers are uncertain, are shown with a selection of clear calls. Calls come from the whole dose curve; as a rule, active = well fitted inhibition curve with a large enough effect; inconclusive = small, poorly fitted or top-dose-only effect; inactive = no such curve, though single readings can be large or run the other way. Potencies of inconclusive entries are left out as doubtful fits. Potency is the fitted concentration of half-maximal effect; tags give direction and shape of the fitted curve.", "data": [{"system": "Plasmodium falciparum AMA1 (3D7) - RON2 peptide interaction", "experiment": "qHTS for Inhibitors of AMA1-RON; Towards Development of Antimalarial Drug Lead: Primary Screen; note: nearly all actives have a fitted effect of over 45% in size;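 for activity change, negative = inhibition: 0% = vehicle wells and -100% = peptide control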", "details": "AlphaScreen AMA1-biotinylated RON2 peptide binding; activity change, negative = inhibition: at 58.2 µM (top of the series) unless noted", "outline": "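AMA1 (3D7) with his tag at 25 nM final met compounds first, then biotinylated RON2 peptide at 25 nM; detection used donor plus acceptor beads, 10 µg/mL apiece, read by AlphaScreen after 30 min at room temperature.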", "values": [{"smiles": "Cc1ccccc1NC1=C(Cl)C(=O)OC1OC(C)C", "note": "(centres undefined)", "Potency": "inconclusive [inhibitor, partial curve]"}, {"smiles": "Cc1nc2ccc3[nH]snc3c2n1", "Potency": "inconclusive [inhibitor, partial curve]"}, {"smiles": "CCCCCn1c(CN(C)Cc2ccccc2)nc2c1c(=O)n(C)c(=O)n2C", "Potency": "inconclusive [inhibitor, single point]"}, {"smiles": "COc1ccc2[nH]c(=O)c(CN(CCN3CCCC3)C(=O)Nc3ccccc3Cl)cc2c1", "Potency": "inactive"}, {"smiles": "CCOC(=O)C1(CCOc2ccccc2)CCN(Cc2cnc(SC)nc2)CC1", "Potency": "inconclusive [inhibitor, single point]"}, {"smiles": "COc1cc(C=C(c2nc3ccccc3s2)c2nc3ccccc3s2)cc(OC)c1O", "Potency": "inconclusive [inhibitor, full curve]"}, {"smiles": "CCn1c(SCc2ccccc2)nc2c(c1=O)SCC2", "Potency": "inconclusive [inhibitor, single point]"}, {"smiles": "COc1ccccc1Nc1nc(N)nc(-c2oc3ccccc3c2C)n1", "Potency": "inactive"}, {"smiles": "O=C(NC1C=CS(=O)(=O)C1)c1sc2ccccc2c1Cl", "note": "(centres undefined)", "Potency": "inactive"}, {"smiles": "C=CCN(CC=C)CCOc1ccc(C)cc1[N+](=O)[O-]", "Potency": "inconclusive [inhibitor, single point]"}, {"smiles": "CCOc1ccc(-n2c(SCC(N)=O)nnc2-c2cccnc2)cc1", "Potency": "inconclusive [inhibitor, full curve]"}, {"smiles": "O=C1NC(=O)C(=Cc2cc3c(cc2[N+](=O)[O-])OCO3)C(=O)N1", "Potency": "inactive"}, {"smiles": "CCN(CC)C(=O)[C@H]1C[C@H](CC(=O)NCc2ccc(OC)c(OC)c2)C(=O)N2CCc3c([nH]c4cc(-c5ccco5)ccc34)[C@]12C", "Potency": "inconclusive [inhibitor, single point]"}, {"smiles": "CCCC1=C/C(=C/c2ccc(-c3ccccc3OC)o2)C(=O)O1", "Potency": "inactive"}, {"smiles": "CCOC(=O)CSc1nc2c(sc(=S)n2Cc2ccco2)c(=O)n1-c1ccc(F)cc1", "Potency": "inactive"}, {"smiles": "O=[N+]([O-])c1ccc(N2CCN(c3ccccc3O)CC2)c(Cl)c1", "Potency": "inconclusive [inhibitor, partial curve]"}, {"smiles": "OC(COc1ccc2c(c1)CCC2)CN1CCN(c2cccc(Cl)c2)CC1", "note": "(centres undefined)", "Potency": "inconclusive [inhibitor, single point]"}, {"smiles": "CC(C)c1nc(SCC(=O)Nc2ccc(N(C)C)cc2)c2ccccc2n1", "Potency": "inconclusive [inhibitor, partial curve]"}, {"smiles": "CC(C)(C)OC(=O)N[C@H]1C=C[C@@H](OC(=O)CC(=O)OCC(F)(F)F)C1", "Potency": "inactive"}, {"smiles": "COc1ccccc1OCC(=O)N/N=C/C=C/c1ccc([N+](=O)[O-])o1", "Potency": "inactive"}, {"smiles": "O=S(=O)(Nc1ccccc1N1CCCCC1)c1ccc(F)cc1F", "Potency": "inconclusive [inhibitor, single point]"}, {"smiles": "CC(C)NC(=O)C1CCN(Cc2cccc(Oc3ccccc3)c2)CC1", "Potency": "inconclusive [inhibitor, single point]"}, {"smiles": "CCCc1[nH]nc2c1C(c1ccc(OCCN3CCOCC3)c(OCC)c1)C(C#N)=C(N)O2", "note": "(centres undefined)", "Potency": "inconclusive [inhibitor, single point]"}, {"smiles": "O=[N+]([O-])c1ccccc1SNc1ccccc1", "Potency": "inconclusive [inhibitor, partial curve]"}, {"smiles": "COc1ccc2oc(C(=O)OCC(=O)N(Cc3ccccc3)C(C)C)c(C)c2c1", "Potency": "inconclusive [inhibitor, partial curve]"}, {"smiles": "COc1ccccc1N1CCN(/N=C/c2ccc(OC)c(OC)c2OC)CC1", "Potency": "inactive"}, {"smiles": "Cc1[nH]n(-c2ccccc2)c(=O)c1-c1cccc(Cl)c1", "Potency": "inactive"}, {"smiles": "N#C/C(=C\\c1ccccc1[N+](=O)[O-])c1nc(C2CC2)cs1", "Potency": "inconclusive [inhibitor, single point]"}, {"smiles": "FC(F)(F)c1ccc2c(c1)N(CCCN1CCN(CCCl)CC1)c1ccccc1S2", "Potency": "inconclusive [inhibitor, single point]"}, {"smiles": "CCN(CC)S(=O)(=O)c1ccc(O)c(NC(=O)c2cc(-c3cc(OC)c(OC)c(OC)c3)nc3ccccc23)c1", "Potency": "inconclusive [inhibitor, single point]"}, {"smiles": "COc1ccc(S(=O)(=O)N(CCCN2CCOCC2)Cc2cccc3ccccc23)cc1", "Potency": "inconclusive [inhibitor, single point]"}, {"smiles": "CCOc1cc2[nH]c(=O)n(CCC(=O)N3CCN(c4ccccc4OC)CC3)c(=O)c2cc1OCC", "Potency": "inactive"}, {"smiles": "COCCN1Cc2cccc(C(=O)N3CCN(c4cc(C)ccc4C)CC3)c2C1=O", "Potency": "inactive"}, {"smiles": "CCNC(=O)CC1C(=O)N(c2ccc(F)cc2)C(=S)N1CCc1ccncc1", "note": "(centres undefined)", "Potency": "active: 31.6 µM"}, {"smiles": "COC(=O)C1=C(c2ccc(-c3ccccc3)c(F)c2)C[C@@H]2CC[C@H]1N2C(=O)NC1Cc2ccccc2C1", "Potency": "inactive"}, {"smiles": "CC1CCN(S(=O)(=O)c2ccc(S(=O)(=O)N3CCC4(CC3)OCCO4)cc2)CC1", "Potency": "inconclusive [inhibitor, single point]"}, {"smiles": "Cc1c(C(=O)NCc2ccc([N+](=O)[O-])cc2)sc(=O)n1Cc1ccc(-c2ccccc2)cc1", "Potency": "inactive"}, {"smiles": "N#C/C(=C\\c1ccc(Cl)c([N+](=O)[O-])c1)c1ccccn1", "Potency": "inconclusive [inhibitor, partial curve]"}, {"smiles": "O=[N+]([O-])c1ccc(N2CCN(S(=O)(=O)c3ccccc3)CC2)cc1NCCN1CCOCC1", "Potency": "inconclusive [inhibitor, partial curve, poor fit]"}, {"smiles": "CC(=NNC(=S)N1CCN(C2CCCCCC2)CC1)c1ccccn1", "Potency": "active: 14.1 µM"}, {"smiles": "COc1cccc2cc(CC(=O)c3cc(C)ccc3C)c(=O)oc12", "Potency": "inactive"}, {"smiles": "COc1ccc2c(c1)OC[C@H]1[C@H]2N2C(=O)CN(CCc3c[nH]c4ccccc34)C(=O)[C@@]2(C)[C@H]1c1ccccc1", "Potency": "inactive"}, {"smiles": "O=C1c2cccc3cccc(c23)C(=O)N1Cc1cccnc1", "Potency": "inactive"}, {"smiles": "Cn1nc(C(F)(F)F)c(-c2ccc(Br)cc2)c1NC(=O)CSCC(=O)O", "Potency": "inactive"}, {"smiles": "FC(F)(F)c1cnc(N2CCN(C(=S)NCc3ccccc3)CC2)c(Cl)c1", "Potency": "inconclusive [inhibitor, single point]"}, {"smiles": "c1ccc(OCCCN2CCCC2)cc1", "Potency": "inconclusive [inhibitor, single point]"}, {"smiles": "COc1ccccc1C(=O)NCC(c1cccs1)N1CCc2ccccc21", "note": "(centres undefined)", "Potency": "inconclusive [inhibitor, partial curve]"}, {"smiles": "COc1ccc(/C(=C/Nc2cccc(Br)c2)C(C)=O)cc1OC", "Potency": "inconclusive [inhibitor, partial curve]"}, {"smiles": "CCOP(=O)(c1ccccc1)c1nc(-c2ccccc2Cl)oc1N1CCCCC1", "note": "(centres undefined)", "Potency": "inactive"}, {"smiles": "COc1ccc(NC(=O)CSc2nnc(-c3ccccn3)n2N)c(OC)c1", "Potency": "inconclusive [inhibitor, partial curve]"}, {"smiles": "O=C(OCC(=O)N1CCN(c2ccccc2)CC1)c1cc(Cl)ccc1[N+](=O)[O-]", "Potency": "inconclusive [inhibitor, single point]"}, {"smiles": "C=CCN1C(=O)C2(NC(=O)c3ccccc3N2)c2ccccc21", "note": "(centres undefined)", "Potency": "inactive"}, {"smiles": "O=C(Nc1nc2ccccc2n1CCN1CCCCC1)C1CCCCC1", "Potency": "inactive"}, {"smiles": "CCOc1ccc(-c2nnc(NC3=NCCCCC3)o2)cc1", "Potency": "inactive"}, {"smiles": "CC(c1ccccc1)N(CCC(c1ccccc1)C1CCOC(C)(C)C1)C(=O)c1ccco1", "note": "(centres undefined)", "Potency": "inactive"}, {"smiles": "CC[n+]1c(/C=C2/C=C(C)CC(C)(C)C2)sc2ccc(OC)cc21", "Potency": "inconclusive [inhibitor, single point]"}, {"smiles": "Cc1ccccc1OCC(=O)OCC(=O)Nc1cc(S(=O)(=O)N2CCCCC2)ccc1Cl", "Potency": "inactive"}, {"smiles": "COc1ccc(NC(=O)CSc2ccc(NC(C)=O)cc2)cc1S(=O)(=O)N1CCOCC1", "Potency": "inactive"}, {"smiles": "C#CCOCCOCCOCCNc1nc(N2CCN(C(=O)CCCCCCCCCCNC(=O)Cn3cc(CCCCCN)nn3)CC2)nc(N2CCN(C(=O)CCCCCCCCCCNC(=O)Cn3cc(CCCCCN)nn3)CC2)n1", "Potency": "inconclusive [inhibitor, single point]"}, {"smiles": "C#CCOCCOCCOCCNc1nc(N2CCN(C(=O)CCCCCCCCCCNC(=O)Cn3cc(C[C@@H](C)O)nn3)CC2)nc(N2CCN(C(=O)CCCCCCCCCCNC(=O)[C@@H](CCC(=O)O)n3cc(CCCCCN)nn3)CC2)n1", "Potency": "inconclusive [inhibitor, single point]"}, {"smiles": "Fc1cccc(F)c1CN1CCN(c2ccc(Cl)cc2)CC1", "Potency": "inconclusive [inhibitor, partial curve, poor fit]"}, {"smiles": "Cc1ccccc1OCCNc1cc(N2CC(C)NC(C)C2)ccc1[N+](=O)[O-]", "note": "(centres undefined)", "Potency": "inconclusive [inhibitor, single point]"}, {"smiles": "Cc1nc2ccc(NC(=O)c3ccc4ccccc4n3)cc2s1", "Potency": "inactive"}, {"smiles": "CN(C(=O)COC(=O)CCC(=O)c1ccc(Cl)cc1)c1c(N)n(Cc2ccccc2)c(=O)[nH]c1=O", "Potency": "inconclusive [inhibitor, full curve, poor fit]"}, {"smiles": "N#Cc1nc(-c2ccco2)oc1NCc1ccco1", "activity change, negative = inhibition": "inconclusive: 0% [inhibitor]"}, {"smiles": "COc1ccc(CN2CCN(S(=O)(=O)c3ccccc3)CC2)c(OC)c1", "Potency": "inconclusive [inhibitor, single point]"}, {"smiles": "Nc1nnnn1/N=C/c1ccccn1", "Potency": "inactive"}, {"smiles": "COc1ccc(CN(C(=O)c2ccc(-c3ccccc3)[nH]2)C(C(=O)NCC2CCCO2)c2ccc(C)o2)cc1", "note": "(centres undefined)", "Potency": "inconclusive [inhibitor, partial curve]"}, {"smiles": "COCCNS(=O)(=O)c1ccc(-c2ccc(Cl)cc2)cc1", "Potency": "inconclusive [inhibitor, single point]"}]}]}
